# Reference: the supplement of paper PMC7826260
# Some of the results follow. Each Rep nickase domain was tested in vitro on the same pool of single strands (1 h at 37 °C, 3 µM enzyme); the outer parts of the 90-letter strands are left off. Numbers give uncut DNA relative to the enzyme-free pool, as log2; more negative means more cut, near 0 not cut, and no call is made. Shares of all reads are compared; where an enzyme cuts many sequences, the uncut ones exceed 0.
# Legend:
# Test in all cases: uncleaved DNA left, log2 of reads against the no-enzyme library (log2 ratio); higher = less cleavage (more negative = more Rep cleavage of the k-mer); sequences stand for … in CTCGTCCG…ACCGGAGA
# [1] = test system: T1, Rep nickase domain of Muscovy duck circovirus
# T1 sequence (protein, residues 1-111, tag omitted): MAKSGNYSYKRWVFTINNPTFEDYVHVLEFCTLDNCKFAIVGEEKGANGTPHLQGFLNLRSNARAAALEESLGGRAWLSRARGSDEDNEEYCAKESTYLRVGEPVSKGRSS
# Experimental: (§1)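 A pool of 90-nt single-stranded DNAs with seven random bases just before the constant AC of the nick site (name = the seven bases) was cut by 3 µM recombinant His6-SUMO-tagged Rep nickase domain (300 nM DNA, 50 mM HEPES pH 8.0, 50 mM NaCl, 1 mM MnCl2, 1 h, 37 °C, three replicates). Uncut DNA was amplified and sequenced.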
# [2] = test system: T2, Rep nickase domain of banana bunchy top virus
# T2 sequence (protein, residues 1-94, tag omitted): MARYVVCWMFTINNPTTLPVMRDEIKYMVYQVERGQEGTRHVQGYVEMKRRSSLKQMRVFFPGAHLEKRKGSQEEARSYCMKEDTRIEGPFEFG
# Experimental: as §1
# [3] = test system: T3, Rep nickase domain of cabbage leaf curl virus
# T3 sequence (protein, residues 1-116, tag omitted): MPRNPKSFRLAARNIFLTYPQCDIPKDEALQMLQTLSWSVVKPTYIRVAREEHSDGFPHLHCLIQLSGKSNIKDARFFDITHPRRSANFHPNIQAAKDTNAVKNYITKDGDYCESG
# Experimental: as §1
# [4] = test system: T4, Rep nickase domain of chickpea chlorotic dwarf virus
# T4 sequence (protein, residues 1-124, tag omitted): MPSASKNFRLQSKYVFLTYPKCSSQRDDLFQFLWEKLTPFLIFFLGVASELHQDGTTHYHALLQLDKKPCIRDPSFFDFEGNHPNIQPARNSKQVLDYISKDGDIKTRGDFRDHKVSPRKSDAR
# Experimental: as §1
# [5] = test system: T5, Rep nickase domain of faba bean necrotic yellows virus
# T5 sequence (protein, residues 1-98, tag omitted): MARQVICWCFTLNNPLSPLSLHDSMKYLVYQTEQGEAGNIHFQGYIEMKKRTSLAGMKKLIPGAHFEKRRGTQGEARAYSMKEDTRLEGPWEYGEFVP
# Experimental: as §1
# [6] = test system: T6, Rep nickase domain of maize striate mosaic virus
# T6 sequence (protein, residues 1-117, tag omitted): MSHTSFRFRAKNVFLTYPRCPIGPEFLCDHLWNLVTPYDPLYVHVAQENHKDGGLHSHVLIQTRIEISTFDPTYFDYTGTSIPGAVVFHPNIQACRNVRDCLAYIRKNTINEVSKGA
# Experimental: as §1
# [7] = test system: T7, Rep nickase domain of porcine circovirus 2
# T7 sequence (protein, residues 2-116, tag omitted): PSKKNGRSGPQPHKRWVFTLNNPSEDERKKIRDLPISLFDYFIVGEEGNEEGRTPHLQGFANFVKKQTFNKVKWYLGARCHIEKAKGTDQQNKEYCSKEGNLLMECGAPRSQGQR
# Experimental: as §1
# [8] = test system: T8, Rep nickase domain of tomato golden mosaic virus
# T8 sequence (protein, residues 1-124, tag omitted): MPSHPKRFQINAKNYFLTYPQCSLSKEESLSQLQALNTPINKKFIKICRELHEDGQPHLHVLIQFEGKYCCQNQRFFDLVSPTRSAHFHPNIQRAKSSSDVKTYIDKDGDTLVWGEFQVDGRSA
# Experimental: as §1
# [9] = test system: T9, Rep nickase domain of tomato yellow leaf curl virus
# T9 sequence (protein, residues 1-136, tag omitted): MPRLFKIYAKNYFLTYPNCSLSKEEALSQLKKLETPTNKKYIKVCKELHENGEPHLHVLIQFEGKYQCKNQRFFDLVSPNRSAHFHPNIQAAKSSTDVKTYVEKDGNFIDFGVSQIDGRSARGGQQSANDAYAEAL
# Experimental: as §1
# [10] = test system: T10, Rep nickase domain of wheat dwarf virus
# T10 sequence (protein, residues 1-137, tag omitted): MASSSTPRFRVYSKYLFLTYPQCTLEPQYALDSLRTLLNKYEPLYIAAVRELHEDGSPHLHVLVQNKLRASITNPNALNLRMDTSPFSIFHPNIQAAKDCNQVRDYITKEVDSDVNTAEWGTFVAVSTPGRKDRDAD
# Experimental: as §1
Sequence,uncleaved DNA left (log2) [1],uncleaved DNA left (log2) [2],uncleaved DNA left (log2) [3],uncleaved DNA left (log2) [4],uncleaved DNA left (log2) [5],uncleaved DNA left (log2) [6],uncleaved DNA left (log2) [7],uncleaved DNA left (log2) [8],uncleaved DNA left (log2) [9],uncleaved DNA left (log2) [10]
GATGCTA,0.0269,0.0805,0.238,0.207,0.0374,0.458,0.0212,0.18,0.0894,0.116
GGAGATG,-0.00288,0.00813,0.352,1.25,0.0656,1.66,0.119,-0.0152,-0.058,-0.0844
ATAGTGG,0.0344,0.00958,-0.238,-0.143,0.0401,-0.976,0.158,0.0396,0.0711,-0.00167
GGGTCTG,0.162,0.158,0.743,1.73,0.00468,2.12,0.192,0.0601,0.0164,0.118
CGTTGGA,-0.0979,0.000924,-0.255,-0.474,-0.0804,-1.04,-0.0697,-0.205,-0.0734,-0.053
GGCGACT,-0.048,-0.0368,0.0714,0.838,-0.0436,1.77,0.0685,0.0212,-0.227,-0.00316
CGGACGC,0.0645,0.00533,0.683,1.67,-0.0316,1.79,0.174,0.0225,0.0853,0.119
ACGGTCT,-0.094,-0.199,-0.298,-1.5,0.00589,-0.491,-0.0333,-0.0739,-0.142,-0.193
GCGCACC,-0.0464,0.0124,0.0666,0.2,-0.101,0.0871,-0.0276,-0.0604,0.023,-0.0431
TATGCAT,0.0159,0.0103,-0.273,-1.05,0.105,-0.704,-0.00342,-0.0544,0.114,-0.0462
ATTTCAA,-0.107,-0.0274,-0.000607,-0.22,0.0117,-0.624,-0.0533,-0.0236,-0.0497,0.126
CCGGATC,-0.22,-0.209,0.149,0.411,-0.369,0.647,0.0351,0.0896,-0.191,-0.144
GTCTTGC,-0.0108,0.0701,0.215,0.542,-0.0766,0.686,0.0598,0.104,0.0133,-0.00739
ATACTTA,-0.231,-0.153,-0.168,-1.89,-0.113,-0.515,-0.23,-0.0943,-0.155,-0.127
GGAGACA,0.203,0.245,0.998,2.27,0.06,2.34,0.37,0.172,0.053,0.305
CTAAGTC,0.109,0.0468,-3.24,-2.97,0.079,-1.82,0.0217,-0.95,0.1,-1.89
AAACAAG,-0.126,0.0375,-0.89,-0.448,-0.0325,-1.1,0.163,-0.0622,0.0196,-0.188
TTTAATG,0.178,0.071,-0.327,-0.559,-0.0903,-0.942,0.0541,-0.0386,-0.0788,-0.0895
TTCGTCT,-0.00614,-0.127,0.00864,-1.75,-0.108,-0.811,-0.175,-0.184,-0.0802,-0.138
CGCAGGC,0.0725,-0.0189,0.0846,0.155,0.153,-0.432,0.214,-0.0479,0.0407,0.00948
TCAGGAT,0.00287,0.0767,0.152,1.45,0.141,1.85,0.111,0.126,-0.174,0.0137
CTAAAAC,0.0776,0.0436,-0.0251,-1.03,0.0476,-0.839,0.16,0.0959,-0.0404,0.0783
CGGATAG,-0.0265,0.0341,-0.223,0.302,-0.00793,-0.537,0.0327,-0.00795,0.0591,0.00661
AAAGGAG,0.117,-0.00706,0.0955,1.51,0.0566,1.08,0.177,0.053,-0.0977,0.0795
AACCTTT,-0.088,-0.0942,-0.315,-2.87,0.0275,-0.589,-3.26,-0.141,-0.0224,-0.0376
CTCCATA,-0.268,0.0217,-0.207,-1.09,-0.0157,-0.581,-0.149,-0.27,-0.0676,0.0585
CGGAGGA,-0.0517,-0.214,0.289,0.594,-0.0599,0.506,0.0186,0.0395,0.0402,0.0556
TTTGATA,-0.0504,-0.00527,-0.00203,-1.12,-0.0262,-0.113,-0.118,-0.102,-0.000249,-0.0564
TTGCTGA,0.116,-0.0616,-0.227,-0.158,-0.00663,-0.649,0.095,0.00217,-0.0573,-0.0718
CATTTAA,-0.254,-0.344,-0.068,-0.637,-0.0159,-0.916,-0.459,0.0496,-0.0144,-0.0776
